Test results reported in the supplement of paper PMC3334620.
In all, about 33,000 sequences were measured (“E-score (-0.5 to 0.5)”: median about -0.016, highest 2% from about 0.32 on). This is one part of the list.

The sequences below were run against T1, Stp1 (UniProt B3LFK1) (assay: PBM E-score (8-mer binding enrichment) (E-score (-0.5 to 0.5)); higher = stronger / more preferred TF binding; most listed sequences are background and not binding sites). Settings: protein concentration: 200 nM; construct: GST-full length.
T1 sequence: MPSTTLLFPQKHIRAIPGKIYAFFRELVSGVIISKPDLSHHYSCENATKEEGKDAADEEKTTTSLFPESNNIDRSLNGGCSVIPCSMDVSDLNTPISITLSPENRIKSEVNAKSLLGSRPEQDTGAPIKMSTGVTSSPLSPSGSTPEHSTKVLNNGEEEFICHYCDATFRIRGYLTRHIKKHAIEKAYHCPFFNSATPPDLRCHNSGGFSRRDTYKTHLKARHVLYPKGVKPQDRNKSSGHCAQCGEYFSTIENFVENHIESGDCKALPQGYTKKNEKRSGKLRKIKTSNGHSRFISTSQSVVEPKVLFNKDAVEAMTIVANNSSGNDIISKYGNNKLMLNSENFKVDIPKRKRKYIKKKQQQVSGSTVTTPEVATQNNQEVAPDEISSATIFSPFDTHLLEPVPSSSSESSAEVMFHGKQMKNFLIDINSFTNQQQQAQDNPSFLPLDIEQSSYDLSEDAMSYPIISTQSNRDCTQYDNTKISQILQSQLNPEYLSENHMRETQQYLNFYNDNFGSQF
Protocol: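 Universal 'all 10-mer' protein binding microarrays (Agilent AMADID 015681) probed with GST-tagged S. cerevisiae TFs (full-length or DBD) made by in vitro transcription/translation (PURExpress), about 100-200 nM. Bound TF was detected with fluorescent anti-GST. Each ungapped 8-mer (which stands for itself and its reverse complement) is scored by the PBM enrichment score (E-score), a modified Wilcoxon-Mann-Whitney statistic from -0.5 to +0.5, computed with the Universal PBM Analysis Suite. Scale: above 0.35 generally sequence-specific binding.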

Sequence | PBM E-score
CGGAAAGC | 0.0194
TTCGCGAA | 0.132
CATAGATA | 0.0148
CGGTCCAA | -0.176
CTATCATC | 0.101
ACTGAGGG | -0.343
CATACAGG | 0.0384
CCCCTGAG | -0.119
AGATGTAA | 0.105
ATAAAGCA | 0.0108
ATATCAAG | 0.117
ATATGCCC | -0.155
TCCACGGA | 0.226
AATCGTTA | -0.0976
CGTGATCA | -0.00858
ATAGGAAG | -0.186
ATGCCAGG | -0.0492
AGGAACTA | -0.0798
ACATGTCG | 0.0297
ATCATGGC | -0.109
GGCGCTGA | 0.327
ACTGCCAC | 0.132

Sequence | PBM E-score
AAGCATAC | -0.0218
AGTCGTCC | -0.199
CACCGTTC | 0.0204
CCGCCACG | 0.0257
ACTTGGTC | -0.0254
ACTATGGG | -0.212
GGAGCATA | 0.0292
GTTTTCAA | 0.265
TAAAGATA | 0.134
GGGTGCAA | -0.0292
GGGAAAGA | -0.21
CAAGGCGC | 0.4
AAAATGCG | 0.0834
GTCAATGA | -0.0766
ACTGAGCT | -0.083
CTGAGATA | 0.0286
AAAGACTT | -0.129
CGACTGTA | -0.178
ACACCGGC | 0.02
TATCCTAA | 0.0431
AAGCAGTC | -0.277
CCATACGA | 0.0449

Sequence | PBM E-score
ACAATCTG | 0.081
ATCAAGTA | 0.0281
TAGTAAAA | 0.185
AGTATGTA | -0.0981
ACCGAGGA | -0.0552
ACGCTAGA | -0.157
TAGTGCCA | 0.203
CTTCACTA | -0.00379
AGACTGCG | 0.0168
GATGACCC | -0.261
ACTCGAAC | -0.014
ATACCTAC | 0.042
CCAGCTCC | -0.143
GAATTGCA | -0.0065
ACACCGGG | -0.236
AGACTGGG | -0.255
AGTACGGC | 0.436
GCTTGAGA | -0.225
CTAGACGA | 0.105
ATAGTTTA | -0.0737
AAGTTTAC | 0.0256
TATTCTGA | -0.256

Sequence | PBM E-score
CTATGGAG | -0.278
ACTAACGG | 0.0898
ATGGCGTA | 0.139
GCTACTTA | -0.075
GAAGACTA | -0.0197
GATGGCCC | -0.173
GATAACAA | 0.179
CCCTAGTA | -0.00421
CTCCACGC | -0.0456
ACCGACCT | -0.149
CTACTCCA | -0.0998
GACTGAGA | -0.0801
ACTCGCCT | -0.00914
CATGGTGA | -0.088
GCGTCCCC | -0.184
CGCTCGAG | 0.196
AGGGTGGC | -0.16
AACAGGAT | -0.0644
AAAAGGAA | 0.107
GGGCCAAC | -0.221
CTTTGGCA | -0.165
AGCTGGAC | -0.196

Sequence | PBM E-score
AAAACTAC | 0.205
GACTCTGC | -0.178
GGAATGTA | -0.064
CTACCTAA | 0.0159
CATGTGAA | -0.0251
GGTCAAAA | -0.0425
CCCAGGGC | -0.103
CATGGCTC | 0.0564
ACCGGACC | -0.175
CCAATGTC | -0.205
TAAGCAGA | -0.178
CCAACGCA | -0.0795
CCCAACGA | -0.182
ACCTTAGT | 0.00759
GACGACTC | -0.233
GAGGGATC | -0.228
ACTCGTGC | -0.00445
AGTCGGCG | 0.2
GAAGTTTA | 0.0956
AGCTGAAA | -0.0168
ATGGCTCA | -0.0765
